Reference: PubChem BioAssay AID686978 (National Center for Advancing Translational Sciences (NCATS), 2013)
Where “and” joins values, the source holds several entries; their conditions need not be identical. Identical values can stand only once. The whole screen tested about 420,000 compounds, of which about 64,000 (15%) were called active. The inconclusive results got no clear call from the source; some entries with a clear call stand among them for comparison. Calls follow the shape of the dose curve; as a rule, active = well fitted inhibition curve with a large enough effect; inconclusive = small, poorly fitted or top-dose-only effect; inactive = flat fitted curve, though single readings scatter. Potencies of inconclusive entries are doubtful fits and often do not repeat.

assay: qHTS for Inhibitors of human tyrosyl-DNA phosphodiesterase 1 (TDP1): qHTS in cells in absence of CPT; details: DT40 Tdp1-/- hTDP1 cells, no CPT, ATP luminescence, 48 h; activity change, negative = growth inhibition: at 46.2 µM (top of the series); also: nearly all actives have a fitted effect of over 55% in size
Outline: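 Stably hTDP1-transfected Tdp1-null chicken DT40 cells were treated with library compounds minus camptothecin and grown for at least 48 hr at 37 °C, after which cellular ATP was quantified by luminescence.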
% is scaled to controls: 0 for no effect and ±100 for the full control effect; potency is read from the fitted curve at half-maximal effect; tags tell the direction and shape of the fitted curve.

Row | Compound | Potency | activity change, negative = growth inhibition
1 | CN(CC(=O)Nc1ccccc1Br)C(=O)CNC(=O)Cc1cccc2ccccc12 | inconclusive: 9.2 µM [inhibitor, partial curve] | 
2 | O=C(Nc1cccc(C(=O)O)c1)/C(=C\c1ccccc1)NC(=O)c1ccc(Br)o1 |  | inactive: -20.8%
3 | Cc1cccc(NC(=S)N2CCN(C(=O)c3ccco3)CC2)c1C |  | inactive: 4.38%
4 | CSc1c(SCc2ccccc2)cnn(-c2ccccc2)c1=O | inconclusive: 20.6 µM [inhibitor, single point] | 
5 | CCCn1c(CN(Cc2ccccc2)Cc2ccccc2)nc2c1c(=O)n(C)c(=O)n2C | active: 14.6 µM | 
6 | N/C(=N/OCC(=O)Nc1cccc2ccccc12)c1nonc1N | inconclusive: 25.9 µM [inhibitor, single point] | 
7 | ClC1(Cl)CC1Cn1cnc2ccccc21 (stereo not given) |  | inactive: -5.11%
8 | COC(=O)CSc1[nH]c2ccccc2c1[N+](=O)[O-] |  | inactive: -28.8%
9 | CCC(Oc1ccccc1)C(=O)Nc1cccc(OCc2cc(=O)n3cccc(C)c3n2)c1 (stereo not given) | active: 16.4 µM | 
10 | CCCOC(=O)CCCN1C(=O)/C(=C2\SC(=S)N(CCCC(=O)OCCC)C2=O)SC1=S | inconclusive: 25.9 µM [inhibitor, single point] | 
11 | Cc1ccc(NC(=S)NCc2ccc3c(c2)cc(C)n3C)c(C)c1 | active: 23.1 µM | 
12 | C(/Oc1ccccc1)=C1\Nn2c(nnc2-c2cc(-c3ccccc3)n[nH]2)S1 | active: 20 µM | 
13 | CCC1CN(C(=O)N2CCC(C(=O)NCc3ccccc3OC)CC2)c2ccccc2O1 (stereo not given) |  | inconclusive: -33.3% [inhibitor]
14 | O=C(Nc1nnc(S(=O)(=O)N2CCOCC2)s1)c1ccc(Cl)cc1 | inconclusive: 14.6 µM [inhibitor, partial curve, poor fit] | 
15 | CCOC(=O)c1ccc2c(c1)nc(SC/C(O)=C(\C#N)c1nc3ccccc3[nH]1)n2CC |  | inconclusive: -31% [inhibitor]
16 | CCC(=O)Nc1ccc(C(=O)CSc2nnc(-c3ccccc3F)n2C2CC2)cc1 | inconclusive: 18.4 µM [inhibitor, partial curve] | 
17 | COc1ccc(C(O)c2nc(-c3cc(F)cc(F)c3)cs2)cc1 (stereo not given) | active: 16.4 µM | 
18 | Cc1ncc2c(c1CNC(=O)c1ccccc1F)CCN(C(=O)c1csc(-c3cccs3)n1)C2 | inconclusive: 16.4 µM [inhibitor, single point] | 
19 | COc1cccc(NC(=O)CSc2nc(C)c(Cc3ccccc3)c(=O)[nH]2)c1 | inconclusive: 23.1 µM [inhibitor, single point] | 
20 | CCOCCn1c(SCc2ccc(C)cc2)nc2c1c(=O)[nH]c(=O)n2C | inconclusive: 18.4 µM [inhibitor, single point] | 
21 | O=C(Nc1ccc(S(=O)(=O)Nc2ncccn2)cc1)C(F)(F)F |  | inactive: -0.833%
22 | CCC1CCc2nc3sc(C(=O)Nc4cccc(F)c4)c(N)c3cc2C1 (stereo not given) | active: 2.06 µM | 
23 | COCCCn1c(SCC(=O)OC2CCCCC2)nnc1-c1ccco1 |  | inactive: -17.1%

Row | Compound | Potency | activity change, negative = growth inhibition
24 | COc1ccc(-c2c(C)nn3c(C(F)(F)F)cc(C)nc23)cc1 | inconclusive: 29.1 µM [inhibitor, single point] | 
25 | COc1cccc2sc3ccc(C#CC4(O)CCCCC4)cc3c(=O)c12 | inconclusive: 20.6 µM [inhibitor, single point] | 
26 | O=S(=O)(NCc1ccccc1)c1ccc(Br)c2nsnc12 |  | inactive: -25.6%
27 | O=C1CC(C(=O)N2CCCc3ccccc32)CN1c1ccc(Cl)cc1 (stereo not given) | inconclusive: 32.6 µM [inhibitor, single point] | 
28 | CC1(C(=O)NS(=O)(=O)c2cccc(C#N)c2)CCN1C(=O)Cc1ccccc1 (stereo not given) |  | inactive: 1.25%
29 | O=C(Nc1ccc(S(=O)(=O)C(F)F)cc1)c1ccc2c(=O)n3c(nc2c1)CCC3 | inconclusive: 8.2 µM [inhibitor, partial curve] | 
30 | COc1ccc2oc(C(=O)OCC(=O)N3C(C)CCCC3C)c(C)c2c1 (stereo not given) |  | inactive: -15.4%
31 | CCOC(=O)c1c(CN2CCN(CC#N)CC2)n(C)c2cc(Br)c(OC)cc12 | inconclusive: 29.1 µM [inhibitor, single point] | 
32 | Cc1c(C)c2ccc(OCC(=O)c3ccccc3)cc2oc1=O | inconclusive: 2.59 µM [inhibitor, full curve, poor fit] | 
33 | Cc1ccc(C2N=C(N)Nc3nc4ccccc4n32)cc1 (stereo not given) | inactive and inconclusive: 25.9 µM [inhibitor, single point] | 
34 | CCCCOc1cccc(C(=O)NC(=S)Nc2cccc(NC(=O)c3ccccc3Cl)c2)c1 | inconclusive: 20.6 µM [inhibitor, single point] | 
35 | Fc1ccc(Cn2cc(C(=S)N3CCOCC3)c3ccccc32)cc1 | inconclusive: 18.4 µM [inhibitor, partial curve] | 
36 | COc1ccc(Cc2nnc(SCC(=O)Nc3cc(Cl)ccc3C)[nH]c2=O)cc1 | inconclusive: 23.1 µM [inhibitor, partial curve] | 
37 | COc1ccc(N(Cc2cc3cccc(C)c3[nH]c2=O)S(C)(=O)=O)cc1 | inconclusive: 8.2 µM [inhibitor, partial curve] | 
38 | CC(C)CC1C(=O)N(Cc2cn(CCC3OCCCO3)nn2)CCS(=O)(=O)N1Cc1ccc(-c2ccccc2)cc1 (stereo not given) | inconclusive: 18.4 µM [inhibitor, partial curve] | 
39 | COc1ccc(OC)c(CNC(=O)c2c(C)oc3ncn(CC(C)C)c(=O)c23)c1 | active: 16.4 µM | 
40 | CCCCOc1ccc(C2=NC(c3cccs3)=Nc3ccc(OC)cc3N2)cc1 | inconclusive: 23.1 µM [inhibitor, single point] | 
41 | COc1ccc2nc(NC(=O)CSc3ccccc3)sc2c1 | inconclusive: 29.1 µM [inhibitor, single point] | 
42 | Cc1cc(NC2CCCCC2)nc(-c2ccccc2O)n1 | inconclusive: 20.6 µM [inhibitor, single point] | 
43 | Cc1ccsc1/C=N/NC(=O)C(N)=O |  | inconclusive: -34.5% [inhibitor]
44 | Cc1cccc(C(=O)NCc2nnc(SCC(=O)NC3=NCCS3)n2C)c1 | active: 16.4 µM | 
45 | COc1cccc2sc(N(Cc3cccnc3)C(=O)c3ccco3)nc12 | inconclusive: 29.1 µM [inhibitor, single point] | 
